IC50 is the fitted dose that halves viability relative to control wells, and lower means more sensitive; a limit (>, <) means that the fit lies beyond the doses tested. AUC, from the same fit, is the share of area under the viability curve across the 256-fold dose range; the more sensitive the line, the further below 1. The top dose, if marked as inferred, was calculated from the reported fits. For part of these data: An entry number marks a drug with two screens in the source, which often give different values.
Key:
Assay in all cases: Viability of human cancer cell lines after 72 h of drug (GDSC screen)
AZD6482 = compound: Cc1cc([C@@H](C)Nc2ccccc2C(=O)O)c2nc(N3CCOCC3)cc(=O)n2c1 [AZD6482]
Description: (§1)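 Human cancer cell lines in 384-well plates, medium with 10% serum, drug for 72 h over a 256-fold dose range (nine 2-fold or five 4-fold steps up to the top dose). Adherent lines were fixed and stained with the nucleic acid dye Syto60, suspension lines read with resazurin; signal relative to control wells, capped at 0 and 100%. One two-parameter sigmoid per drug and line, fitted in a mixed model over all curves with the slope shared within a line.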

MLN4924 = compound: NS(=O)(=O)OC[C@@H]1C[C@@H](n2ccc3c(N[C@H]4CCc5ccccc54)ncnc32)C[C@@H]1O [MLN4924]; settings: top dose 1 µM; top dose inferred
Description: as §1

BMN-673 = compound: Cn1ncnc1[C@H]1c2n[nH]c(=O)c3cc(F)cc(c23)N[C@@H]1c1ccc(F)cc1 [BMN-673]; settings: top dose 10 µM; top dose inferred
Description: as §1

[1] = top dose 5 µM, screen: GDSC drug entry 1066, top dose inferred
[2] = top dose 5.12 µM, screen: GDSC drug entry 156

Row | Cell Line | AUC (AZD6482; [1]) | IC50 (AZD6482; [1]) | AUC (AZD6482; [2]) | IC50 (AZD6482; [2]) | AUC (MLN4924) | IC50 (MLN4924) | AUC (BMN-673) | IC50 (BMN-673)
1 | NCI-H322M (lung adenocarcinoma, suspension) | 0.983 | > 5000 nM | 0.948 | > 5120 nM | 0.98 | > 1000 nM | 0.985 | > 10000 nM
2 | NCI-H2081 (small cell lung carcinoma, suspension) | 0.976 | > 5000 nM | 0.973 | > 5120 nM | 0.94 | > 1000 nM | 0.988 | > 10000 nM
3 | AM-38 (glioma, semi-adherent) | 0.911 | > 5000 nM | 0.97 | > 5120 nM | 0.981 | > 1000 nM | 0.972 | > 10000 nM
4 | EM-2 (chronic myeloid leukaemia, suspension) | 0.933 | > 5000 nM | 0.98 | > 5120 nM | 0.534 | 78.1 nM | 0.789 | 5050 nM
5 | RMG-I (ovary, adherent) | – | – | 0.871 | > 5120 nM | 0.83 | 774 nM | 0.934 | > 10000 nM
6 | HT-3 (cervix, adherent) | 0.951 | > 5000 nM | 0.983 | > 5120 nM | 0.666 | 183 nM | 0.428 | 396 nM
7 | OVMIU (ovary, adherent) | 0.651 | 910 nM | 0.794 | 3020 nM | 0.814 | 723 nM | 0.814 | 7230 nM
8 | CAL-51 (breast, adherent) | 0.725 | 1230 nM | 0.962 | > 5120 nM | 0.703 | 213 nM | 0.214 | 105 nM
9 | RD (rhabdomyosarcoma, adherent) | 0.911 | > 5000 nM | 0.936 | > 5120 nM | 0.895 | > 1000 nM | 0.805 | 5630 nM
10 | DEL (lymphoid neoplasm, suspension) | 0.994 | > 5000 nM | 0.972 | > 5120 nM | 0.674 | 170 nM | 0.496 | 613 nM
11 | RH-18 (rhabdomyosarcoma, adherent) | 0.923 | > 5000 nM | – | – | 0.952 | > 1000 nM | 0.942 | > 10000 nM
12 | SAS (head and neck, adherent) | 0.85 | 4460 nM | 0.983 | > 5120 nM | 0.549 | 86.5 nM | 0.728 | 3030 nM
13 | NCI-H2172 (non-small cell lung carcinoma, adherent) | 0.947 | > 5000 nM | 0.945 | > 5120 nM | 0.967 | > 1000 nM | 0.952 | > 10000 nM
14 | KOSC-2 (head and neck, adherent) | 0.928 | > 5000 nM | 0.886 | > 5120 nM | 0.825 | 638 nM | 0.697 | 2310 nM
15 | NCI-H522 (lung adenocarcinoma, adherent) | 0.885 | > 5000 nM | 0.863 | > 5120 nM | 0.969 | > 1000 nM | 0.95 | > 10000 nM
16 | U-87-MG (glioma, adherent) | – | – | 0.901 | > 5120 nM | 0.814 | 666 nM | 0.714 | 2830 nM
17 | MPP-89 (mesothelioma, adherent) | 0.884 | > 5000 nM | 0.95 | > 5120 nM | 0.862 | > 1000 nM | 0.936 | > 10000 nM
18 | NCI-H1435 (lung adenocarcinoma, semi-adherent) | 0.931 | > 5000 nM | 0.896 | 5080 nM | 0.98 | > 1000 nM | 0.992 | > 10000 nM
19 | Daoy (medulloblastoma, adherent) | 0.902 | > 5000 nM | 0.9 | > 5120 nM | 0.614 | 124 nM | 0.259 | 138 nM
20 | PC-3 [JPC-3] (lung adenocarcinoma, adherent) | 0.914 | > 5000 nM | 0.95 | > 5120 nM | 0.906 | > 1000 nM | 0.924 | > 10000 nM
21 | NCI-H1048 (small cell lung carcinoma, adherent) | 0.685 | 966 nM | 0.72 | 1250 nM | 0.961 | > 1000 nM | 0.325 | 215 nM
22 | UACC-257 (melanoma, adherent) | 0.911 | > 5000 nM | 0.919 | > 5120 nM | 0.942 | > 1000 nM | 0.965 | > 10000 nM
23 | HMV-II (melanoma, adherent) | 0.955 | > 5000 nM | 0.94 | > 5120 nM | 0.839 | 913 nM | 0.922 | > 10000 nM
24 | COLO-320-HSR (large intestine, suspension) | 0.972 | > 5000 nM | 0.979 | > 5120 nM | 0.985 | > 1000 nM | 0.984 | > 10000 nM
25 | CAL-54 (kidney, adherent) | 0.665 | 965 nM | 0.799 | 2870 nM | 0.905 | > 1000 nM | 0.877 | > 10000 nM
26 | 786-0 (kidney, adherent) | 0.788 | 2000 nM | 0.688 | 1030 nM | 0.771 | 353 nM | 0.911 | > 10000 nM
27 | CESS (acute myeloid leukaemia, suspension) | 0.983 | > 5000 nM | 0.856 | 3210 nM | 0.695 | 201 nM | 0.677 | 1790 nM
28 | SW1088 (glioma, adherent) | 0.735 | 1830 nM | 0.712 | 1550 nM | 0.965 | > 1000 nM | 0.932 | > 10000 nM
29 | LU-134-A (small cell lung carcinoma, suspension) | 0.94 | > 5000 nM | 0.933 | > 5120 nM | 0.979 | > 1000 nM | 0.862 | 9480 nM
30 | H2818 (mesothelioma, adherent) | 0.966 | > 5000 nM | 0.962 | > 5120 nM | 0.897 | > 1000 nM | 0.976 | > 10000 nM

Source: the supplement of paper PMC4967469
